Results on 6 molecules are retold here after publication PMC3475658.

Assay [1] deals with T1, Cdc15 (S. pombe (endogenous in S. pombe cells)) (UniProt Q09822).
T1 sequence: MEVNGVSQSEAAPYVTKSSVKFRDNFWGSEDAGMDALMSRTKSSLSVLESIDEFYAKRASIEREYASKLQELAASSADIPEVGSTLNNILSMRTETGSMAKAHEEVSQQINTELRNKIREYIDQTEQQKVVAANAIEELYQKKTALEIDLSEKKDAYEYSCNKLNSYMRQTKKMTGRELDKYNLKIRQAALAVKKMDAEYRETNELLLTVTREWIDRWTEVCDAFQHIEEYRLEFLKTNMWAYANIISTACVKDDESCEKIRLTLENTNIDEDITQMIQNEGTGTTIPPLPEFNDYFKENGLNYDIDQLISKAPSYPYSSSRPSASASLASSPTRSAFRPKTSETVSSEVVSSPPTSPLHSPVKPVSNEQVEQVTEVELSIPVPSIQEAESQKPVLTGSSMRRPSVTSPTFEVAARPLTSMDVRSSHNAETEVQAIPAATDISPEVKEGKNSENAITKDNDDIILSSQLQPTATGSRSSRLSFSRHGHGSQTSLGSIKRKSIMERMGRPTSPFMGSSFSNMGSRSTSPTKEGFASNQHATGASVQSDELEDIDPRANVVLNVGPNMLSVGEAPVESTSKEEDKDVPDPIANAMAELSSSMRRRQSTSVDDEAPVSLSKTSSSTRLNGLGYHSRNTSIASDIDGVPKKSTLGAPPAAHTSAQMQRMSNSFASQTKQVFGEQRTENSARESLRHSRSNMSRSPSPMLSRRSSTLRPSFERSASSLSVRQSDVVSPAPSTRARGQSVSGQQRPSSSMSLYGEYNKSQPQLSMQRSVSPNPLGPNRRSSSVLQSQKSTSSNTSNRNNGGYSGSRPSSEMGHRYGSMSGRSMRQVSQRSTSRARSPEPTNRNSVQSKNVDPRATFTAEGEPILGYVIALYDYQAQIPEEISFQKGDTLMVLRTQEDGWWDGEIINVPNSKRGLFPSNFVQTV
Put plainly: co-IP; anti-Cdc15 and anti-FLAG immunoprecipitates from S. pombe lysates (NP40 lysis buffer), blotted with anti-Cdc15 and/or anti-FLAG; cdc25-22 cells arrested in G2, nda3-KM311 cells arrested in prometaphase.

In another assay the target is T2, Fic1-FLAG3 (S. pombe) (UniProt O94701).
T2 sequence: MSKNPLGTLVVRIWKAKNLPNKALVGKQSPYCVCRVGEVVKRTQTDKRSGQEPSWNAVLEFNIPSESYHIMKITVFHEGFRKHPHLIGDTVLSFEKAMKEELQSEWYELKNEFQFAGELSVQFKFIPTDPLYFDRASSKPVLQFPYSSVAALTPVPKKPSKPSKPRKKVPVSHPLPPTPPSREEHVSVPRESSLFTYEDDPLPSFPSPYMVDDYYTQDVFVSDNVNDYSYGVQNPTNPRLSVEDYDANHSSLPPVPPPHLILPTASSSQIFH
Put plainly: co-IP; anti-FLAG and anti-V5 immunoprecipitates from prometaphase-arrested S. pombe cells (NP40 lysis buffer), blotted with anti-FLAG and/or anti-V5.

Assay [2] deals with T3, full-length Fic1 (two-hybrid fusion) (S. pombe) (UniProt O94701).
T3 sequence: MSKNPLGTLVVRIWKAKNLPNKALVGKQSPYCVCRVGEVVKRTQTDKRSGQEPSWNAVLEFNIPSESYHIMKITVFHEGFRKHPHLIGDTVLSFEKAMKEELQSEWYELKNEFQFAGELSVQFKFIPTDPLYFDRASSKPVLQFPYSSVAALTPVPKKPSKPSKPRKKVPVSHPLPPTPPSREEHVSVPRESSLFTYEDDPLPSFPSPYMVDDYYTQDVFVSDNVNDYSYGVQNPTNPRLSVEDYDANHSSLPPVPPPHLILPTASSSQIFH
Kind of assay: two-hybrid; S. cerevisiae PJ69-4A co-transformed with bait and prey plasmids; interaction judged by growth on selective media lacking histidine and adenine.

Assay [3] addresses T4, Cdc15 SH3 (aa843–927) (S. pombe) (UniProt Q09822).
T4 sequence: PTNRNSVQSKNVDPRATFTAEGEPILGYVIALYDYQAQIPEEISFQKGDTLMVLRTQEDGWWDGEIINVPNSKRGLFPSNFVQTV
The description is as above.

No constants are given. Whether binding was seen depends on the method and setting. For part of these data: In cells and extracts the contact can be indirect. Some results given as binding are weak or reduced against the parent protein; the word gives no strength. For part of these data: Where a sequence is shown, tags or fusion partners need not be part of it.

B1: Fic1-FLAG3 (protein, UniProt O94701 1-272)
chain: MSKNPLGTLVVRIWKAKNLPNKALVGKQSPYCVCRVGEVVKRTQTDKRSGQEPSWNAVLEFNIPSESYHIMKITVFHEGFRKHPHLIGDTVLSFEKAMKEELQSEWYELKNEFQFAGELSVQFKFIPTDPLYFDRASSKPVLQFPYSSVAALTPVPKKPSKPSKPRKKVPVSHPLPPTPPSREEHVSVPRESSLFTYEDDPLPSFPSPYMVDDYYTQDVFVSDNVNDYSYGVQNPTNPRLSVEDYDANHSSLPPVPPPHLILPTASSSQIFH
As for B1, the binding result in assay [1] was “binds”.

B2: Fic1-P257A-FLAG3 (protein, UniProt O94701 1-272)
chain: MSKNPLGTLVVRIWKAKNLPNKALVGKQSPYCVCRVGEVVKRTQTDKRSGQEPSWNAVLEFNIPSESYHIMKITVFHEGFRKHPHLIGDTVLSFEKAMKEELQSEWYELKNEFQFAGELSVQFKFIPTDPLYFDRASSKPVLQFPYSSVAALTPVPKKPSKPSKPRKKVPVSHPLPPTPPSREEHVSVPRESSLFTYEDDPLPSFPSPYMVDDYYTQDVFVSDNVNDYSYGVQNPTNPRLSVEDYDANHSSLPPVPAPHLILPTASSSQIFH
In the case of B2, the binding result in assay [1] is listed as “no binding”.

B3: S. pombe Cyk3 (protein, UniProt O14302 1-886)
chain: MSIPKQLPCMVRALYAWPGEREGDLKFTEGDLIECLSIGDGKWWIGRHINTNTQGIFPSNFVHCLDIPTVRPGSSMSRTSASSFRYSSPQKSSIDTPITSSDQGLTPDLVGSSNALNKPTRESDSLKHQKSHPMLNSLGSSLSLKKSVSRPPSSMSRTNLDVSSRWDNTADNDSQIDAQDLSRSTPSPLRSAMENVLQSLNAMGKKSFSRANSPLLRLTKSTTTSKETDFIPVPPAHGSTSMTSRSKLDDSTDNSSKPRTSLQPGESPMKSSRDISRKPSMASSVLSPSDYFPQHRRFQSAPAPIPRPVSTLIPLTQVRTTASNVIKPRPQTTERPSTAQSFRKGGGFLKKTFKKLLRRGSSKRKPSLQPTPPVSYPAHNVPQKGVRPASPHTLKSVKDDLKRTKTYTKAEFAAKREEIFNKLSMPVYEPLKDLSECIGNVLADGEPVQFSVGTNIHNMNFSAIDKQIRSIIPQRVQVSPAVLAKNYLAPGQTTALAQMRAVFIYISERITFTNQTLDNDELRTSTQVISEGQGTPFEVALLVKEMLQALDLWCEVIEGYLKSPDDIYYTRDININHAWNVVTFDNEVRLIDASFASPTHPQQALKSSSSNDFYFLMKPNECIFTHVPENPDQQFIMPDLSMPIVMALPWVSSVYFTLGLKLRKFNTSILHLNDLEVLQIEFLAPKDIECVAEVDALSALAPTADVSQCYKYTLTQAFWETPDIRVMRVKAVMPANNRAAVLRIYAGRLGVSSPVRTAPHPMAMSLPFVHHGKNKALEFVTRHPVPHCPSVDLYINSPQCGTLHSGVEYKFNVSAYACQPSTSISNTRLAIQTPTGNIVRLREERSGNGVIFFSLSLTINETGEYRALILAEKIGRWVVYATWQAV
As for B3, the binding result with Fic1-FLAG3 (S. pombe) is given as “binds”.

B4: Cyk3 SH3 (aa1–59) (domain or fragment, UniProt O14302 1-59)
chain: MSIPKQLPCMVRALYAWPGEREGDLKFTEGDLIECLSIGDGKWWIGRHINTNTQGIFPS
On to B4, for which the binding entry in assay [2] is reported as “binds”.

B5: wild-type Fic1(aa190–269) fragment (domain or fragment, UniProt O94701 190-269)
chain: RESSLFTYEDDPLPSFPSPYMVDDYYTQDVFVSDNVNDYSYGVQNPTNPRLSVEDYDANHSSLPPVPPPHLILPTASSSQ
With B5, in assay [3], the binding entry is given as “binds”.

B6: Fic1(aa190–269) P257A fragment (domain or fragment, UniProt O94701 190-269)
chain: RESSLFTYEDDPLPSFPSPYMVDDYYTQDVFVSDNVNDYSYGVQNPTNPRLSVEDYDANHSSLPPVPAPHLILPTASSSQ
Turning to B6, the binding result in assay [3] is listed as “no binding”.
